Reference: publication PMC4336329 (PLoS ONE, 2015)
About 2,200 (0.71%) of roughly 310,000 compounds showed an effect of 50% or more. The effect is printed as a negative number. Some of the results follow.

These compounds were tested against human ether-à-go-go-related gene (hERG) potassium channel (human, UniProt Q12809) (assay: primary screen, population patch clamp on CHO cells stably expressing hERG).
human ether-à-go-go-related gene (hERG) potassium channel, sequence (Q12809 whole entry, looked up): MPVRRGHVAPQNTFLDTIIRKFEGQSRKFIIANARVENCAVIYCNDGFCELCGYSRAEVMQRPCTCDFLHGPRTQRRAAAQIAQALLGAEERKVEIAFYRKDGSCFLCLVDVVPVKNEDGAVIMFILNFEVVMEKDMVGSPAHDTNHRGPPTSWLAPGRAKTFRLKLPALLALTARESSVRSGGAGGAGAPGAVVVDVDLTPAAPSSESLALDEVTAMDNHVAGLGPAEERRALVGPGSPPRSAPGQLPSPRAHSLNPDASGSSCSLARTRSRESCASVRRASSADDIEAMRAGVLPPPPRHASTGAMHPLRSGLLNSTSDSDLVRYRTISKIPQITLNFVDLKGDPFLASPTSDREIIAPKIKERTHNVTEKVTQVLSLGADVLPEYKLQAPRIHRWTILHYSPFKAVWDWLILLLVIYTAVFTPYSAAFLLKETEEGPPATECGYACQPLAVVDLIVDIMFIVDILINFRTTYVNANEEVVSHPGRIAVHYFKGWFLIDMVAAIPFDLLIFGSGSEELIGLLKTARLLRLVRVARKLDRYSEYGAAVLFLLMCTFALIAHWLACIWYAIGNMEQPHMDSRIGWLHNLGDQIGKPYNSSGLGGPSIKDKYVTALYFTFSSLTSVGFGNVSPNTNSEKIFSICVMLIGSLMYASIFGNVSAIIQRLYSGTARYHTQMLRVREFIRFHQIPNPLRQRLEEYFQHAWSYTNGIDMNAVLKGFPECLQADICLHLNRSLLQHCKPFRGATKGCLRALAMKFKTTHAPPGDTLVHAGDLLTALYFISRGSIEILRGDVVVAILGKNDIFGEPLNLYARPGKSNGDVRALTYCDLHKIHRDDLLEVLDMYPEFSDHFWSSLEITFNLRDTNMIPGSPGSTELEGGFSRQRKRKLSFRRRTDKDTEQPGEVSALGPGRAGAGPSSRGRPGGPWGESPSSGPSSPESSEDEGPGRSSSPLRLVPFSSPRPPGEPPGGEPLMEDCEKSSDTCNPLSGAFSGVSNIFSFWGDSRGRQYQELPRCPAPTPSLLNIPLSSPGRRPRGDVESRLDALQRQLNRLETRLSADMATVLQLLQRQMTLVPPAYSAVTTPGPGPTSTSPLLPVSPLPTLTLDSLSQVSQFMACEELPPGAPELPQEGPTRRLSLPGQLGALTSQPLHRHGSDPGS

SMILES | hERG current change (%, negative = inhibition) at 1uM
CCc1cc(=O)oc2cc3occ(-c4ccc(OC)c(F)c4)c3cc12 | 8.21%
C=CCNC(=S)N1CCN(CCN=CC2=C(O)CC(c3cccs3)CC2=O)CC1 (stereo not shown) | -10.1%
CCOC(=O)c1ccc(-n2c(=O)[nH]c3ccccc3c2=O)cc1 | 7.25%
COc1ccc(-c2ccc(NS(=O)(=O)c3ccc([N+](=O)[O-])cc3)cc2)nn1 | 12.4%
Cc1occc1C(=O)O/N=C(\N)c1ccccc1 | 2.67%
CC(=O)c1ccc(OCc2cc(C(=O)NC(C)c3cnn(C)c3)no2)cc1 (stereo not shown) | 9.57%
COc1ccccc1N1C(=O)NC(=O)/C(=C/c2ccc([N+](=O)[O-])s2)C1=O | 6.48%
CN(Cc1nccn1C)C(=O)c1ccc2nc(Cc3ccccc3F)oc2c1 | 9.98%
CC(C)CCNC(=S)NC1CCCC1 | 5.34%
Cc1cccc(NC(=O)CCCN2C(=O)C(c3ccccc3)Oc3cccnc32)c1C (stereo not shown) | 11.8%
CC(C)CNS(=O)(=O)c1ccc(C(=O)Nc2ccc3c(c2)OCO3)cc1 | -0.455%
COCCn1c(SCC(=O)Nc2cc(C)cc(C)c2)nnc1C(C)C | -0.478%
O=C1CC(c2ccccc2)CC(O)=C1C=Nc1cccc(Cl)c1 (stereo not shown) | 8.91%
COc1ccc(Cc2nnc(SCC(=O)NCCc3ccccc3)o2)cc1 | 7.05%
O=c1c2ccccc2nc(-c2ccc(Cl)cc2Cl)n1O | -19.5%
O=c1[nH]c2cccnc2n(CCNc2ncc(C(F)(F)F)cc2Cl)c1=O | 3.23%
COc1ccccc1OCCCCNC(C)(C)C | 7.5%
COc1ccc(/C(C)=N/NC(=O)Cc2c(C)nc(C)[nH]c2=O)cc1 | 8%
COc1cccc(/C=N/NC(=O)c2ccoc2C)c1 | 10.9%
O=C(Oc1ccc(Br)cc1C(=S)N1CCCC1)c1ccccc1Cl | 10.9%

SMILES | hERG current change (%, negative = inhibition) at 1uM
Cc1ccccc1N1CCN(Cc2c[nH]c3ccccc23)CC1 | -17%
Cc1ccc(-c2nc3ncccc3n2O)cc1 | 13%
COc1ccc(-c2noc(CCC(=O)Nc3cccnc3)n2)cc1 | 21.2%
COC(C(=O)Nc1ccc(S(=O)(=O)Nc2ccc(C)c(C)c2)cc1)c1ccccc1 (stereo not shown) | 1.3%
Cc1cc(NC(=O)c2ccco2)no1 | 13.6%
Cc1ccc(-n2nc3ccc(NC(=O)c4ccc5c(c4)OCO5)cc3n2)cc1 | 2.21%
O=C(Nc1cccc(C(F)(F)F)c1)c1ccco1 | -2.11%
Cc1cc(C)n(-c2ncc3c(n2)N(CCO)CCOC3=O)n1 | 15.1%
CC(C)(C)OC(=O)N1CCNc2ccccc2C1 | 8.34%
O=C(NNS(=O)(=O)c1ccccc1)c1sccc1-n1cccc1 | 7.39%
CCOC(=O)CC1(NC(=O)C2CCC(=O)N(CCc3ccc(OC)cc3)C2)CCCCC1 (stereo not shown) | 5.85%
Cc1nn(Cc2ccccc2Cl)c(C)c1C(=O)N(C)CC(=O)Nc1cccc(F)c1 | -6.18%
COC(=O)c1cc(C#N)c(Oc2cccc(C)c2C)nc1C | 8.72%
O=C(NCCCCNC(=O)C1CCCC1)C1CCCC1 | 0.747%
O=C(Nc1cccnc1)Nc1ccc2c(c1)OCO2 | -5.98%
COc1ccc(C2CC(=O)C(C=NCCN3CCN(C(C)=O)CC3)=C(O)C2)cc1 (stereo not shown) | 0.835%
Cc1ccccc1-c1cc(C(=O)NCc2cccs2)n(CC2CC(c3cccnc3)=NO2)n1 (stereo not shown) | -7.94%
Cc1cc(Nc2ccc([N+](=O)[O-])cc2)c2ccccc2n1 | 4.19%
Nc1nnc(C2CCCC2)s1 | 6.32%
CC1NC(=O)NC1CCCCCC(=O)Nc1ccc(F)c(Cl)c1 (stereo not shown) | 1.45%

SMILES | hERG current change (%, negative = inhibition) at 1uM
[Cl-].c1ccc(Cn2c[n+](Cc3ccccc3)c3ccccc32)cc1 | 1.48%
Cc1ccc(NC(=O)c2cccc(Cl)c2)nc1 | 5.15%
Cc1cc(C(=O)CSc2nnnn2-c2ccc(Cl)cc2)c(C)n1CC1CCCO1 (stereo not shown) | 8.1%
Cc1cccc(C)c1NC(=O)COC(=O)COc1ccc2c(C)cc(=O)oc2c1 | 4.79%
CC1(C)CC(=O)c2cc(C(=O)NCc3ccco3)c(=O)n(-c3ccccc3)c2C1 | 7.8%
CCCN1C2CCCC1CC(NC(=S)NCCCOCC)C2 (stereo not shown) | 8.82%
Cc1occc1-c1nnc(SCC(=O)Nc2nccs2)n1Cc1ccco1 | 3.28%
Cc1ccc2[nH]c(=O)c(CN(Cc3cccs3)Cc3nnnn3Cc3ccccc3)cc2c1 | 3.86%
O=C(N/C=N/O)C1=NOC(CNc2ncc(C(F)(F)F)cc2Cl)C1 (stereo not shown) | -3.94%
Cc1cc(C)c2cc(C(=O)N(C)C3CCN(C)CC3)[nH]c2c1 | 14.6%
O=C(c1ccc(-c2nnc(Nc3ccccc3)c3ccccc23)cc1)N1C[C@H]2C[C@H](C1)c1cccc(=O)n1C2 | 8.88%
CCN(CC)S(=O)(=O)c1ccc(N2CCN(CCO)CC2)nc1 | 6.5%
CCOc1ccc(N/C(C)=C/C(=O)c2ccc(C)o2)cc1 | 10.1%
CNC(=O)c1cc(C(=O)c2c(Cl)cccc2Cl)c[nH]1 | 7.41%
O=c1c(Cc2ccc(Cl)cc2Cl)c(O)ccn1Cc1ccc(Cl)cc1 | 9.41%
NC1=NC[C@H](Cc2ccc(O)cc2)N1CCC12CC3CC(CC(C3)C1)C2 | 18%
O=C(CSc1ccc2nnc(-c3ccccn3)n2n1)Nc1ccc2c(c1)OCCO2 | -2.96%
CCOc1ccc(NC(=O)N2CCN(S(C)(=O)=O)CC2)cc1 | 10.2%
